The list shows a part of the results.

Holding throughout (test): glycan array binding signal (z-score within array); higher = stronger binding
Conditions in all cases: glycan notation: IUPAC condensed, linker removed

For one test, the target named is Gal(b1-3)GalNAc(b1-3)Gal. The gist of the method: (§1)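 Glycan array binding is given as a within-array Z-score, which can be read as non-binding when negative. The arrays, 3228 of them, came from the Consortium for Functional Glycomics database and were retained only where the protein sequence was available. Z-scores were averaged across arrays of the same protein sequence at different concentrations or buffers and across linkers.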

Test [1] concerns the target Gal(b1-3)GalNAc(b1-3)Gal(a1-4)Gal(b1-4)Glc. The gist of the method:
as §1

Test [2] has as its target Gal(b1-3)GalNAc(b1-4)Gal(b1-4)Glc. Summed up: as §1
For test [3], the target named is Gal(b1-3)GalNAc(b1-4)[Neu5Ac(a2-3)]Gal(b1-4)Glc. Summed up: as §1
In a further test the target is Gal(b1-3)GlcNAc. Summed up: as §1
For test [4], the target named is Gal(b1-3)GlcNAc(a1-3)Gal(b1-4)GlcNAc. Summed up:
as §1

For test [5], the target named is Gal(b1-3)GlcNAc(a1-6)Gal(b1-4)GlcNAc. Summed up: as §1
A further test has as its target Gal(b1-3)GlcNAc(b1-2)Man. The gist of the method:
as §1

Test [6] concerns the target Gal(b1-3)GlcNAc(b1-2)Man(a1-3)[Gal(b1-3)GlcNAc(b1-2)Man(a1-6)]Man(b1-4)GlcNAc(b1-4)GlcNAc. The gist of the method:
as §1

The target in test [7] is Gal(b1-3)GlcNAc(b1-2)Man(a1-3)[Gal(b1-3)GlcNAc(b1-2)Man(a1-6)]Man(b1-4)GlcNAc(b1-4)[Fuc(a1-6)]GlcNAc. The gist of the method: as §1
For test [8], the target named is Gal(b1-3)GlcNAc(b1-2)Man(a1-3)[GlcNAc(b1-4)][Gal(b1-3)GlcNAc(b1-2)Man(a1-6)]Man(b1-4)GlcNAc(b1-4)GlcNAc. Summed up: as §1
Test [9] addresses Gal(b1-3)GlcNAc(b1-2)[Gal(b1-3)GlcNAc(b1-6)]Man(a1-6)[Gal(b1-3)GlcNAc(b1-2)Man(a1-3)]Man(b1-4)GlcNAc(b1-4)GlcNAc. Summed up: as §1
In test [10] the target is Gal(b1-3)GlcNAc(b1-3)Gal(b1-3)GlcNAc. Summed up: as §1
Test [11] addresses Gal(b1-3)GlcNAc(b1-3)Gal(b1-4)Glc. The gist of the method: as §1
Test [12] concerns the target Gal(b1-3)GlcNAc(b1-3)Gal(b1-4)GlcNAc. Summed up: as §1
The target in test [13] is Gal(b1-3)GlcNAc(b1-3)Gal(b1-4)GlcNAc(b1-2)Man(a1-3)[Gal(b1-3)GlcNAc(b1-3)Gal(b1-4)GlcNAc(b1-2)Man(a1-6)]Man(b1-4)GlcNAc(b1-4)GlcNAc. Summed up:
as §1

Test [14] deals with Gal(b1-3)GlcNAc(b1-3)Gal(b1-4)GlcNAc(b1-2)[Gal(b1-3)GlcNAc(b1-3)Gal(b1-4)GlcNAc(b1-6)]Man(a1-6)[Gal(b1-3)GlcNAc(b1-3)Gal(b1-4)GlcNAc(b1-2)Man(a1-3)]Man(b1-4)GlcNAc(b1-4)[Fuc(a1-6)]GlcNAc. Summed up: as §1
The target in test [15] is Gal(b1-3)GlcNAc(b1-3)Gal(b1-4)GlcNAc(b1-3)Gal(b1-4)GlcNAc(b1-2)[Gal(b1-3)GlcNAc(b1-3)Gal(b1-4)GlcNAc(b1-3)Gal(b1-4)GlcNAc(b1-6)]Man(a1-6)[Gal(b1-3)GlcNAc(b1-3)Gal(b1-4)GlcNAc(b1-3)Gal(b1-4)GlcNAc(b1-2)Man(a1-3)]Man(b1-4)GlcNAc(b1-4)[Fuc(a1-6)]GlcNAc. Summed up:
as §1

In test [16] the target is Gal(b1-3)GlcNAc(b1-3)Gal(b1-4)GlcNAc(b1-6)[Gal(b1-3)GlcNAc(b1-3)]Gal(b1-4)Glc. The gist of the method: as §1
For test [17], the target named is Gal(b1-3)GlcNAc(b1-3)Gal(b1-4)[Fuc(a1-3)]GlcNAc. The gist of the method:
as §1

The target of test [18] is Gal(b1-3)GlcNAc(b1-3)Gal(b1-4)[Fuc(a1-3)]GlcNAc(b1-6)[Gal(b1-3)GlcNAc(b1-3)]Gal(b1-4)Glc. Summed up:
as §1

In test [19] the target is Gal(b1-3)GlcNAc(b1-3)GalNAc. The gist of the method:
as §1

Test [20] has as its target Gal(b1-3)GlcNAc(b1-6)Gal(b1-4)GlcNAc. The gist of the method:
as §1

B1: Cp ZmpB (Clostridium perfringens), Q0TR08 (protein)
chain: MNKRKIAAIILATMITNLSATTIDVLAQELNTKNNSKVEVSHDDESHQARVSKFDLYNSDKLDAYNQEFQVSRSNIKSINNNGGKYNSSTIDKAIDGNLETHWETGKPNDANFTNEVVVTFNEITNIDRIVYSARRDSARGKGFAKEFEIYASLKDEGDDFNLVSSGEYTESTRDLVEIKFNPTDFKRLKFKFKKADQNWASAAEFMFYKEDKLNEKFNGLFTDSSMNKVSEEFNTLEKLNAFENELKDHPIYDLYKEGLNNARAILTETSENPTKATLGQITYNLNDDYNNQYRMPYKNIKAIKNNGRHYAAQNIEKAIDNDVNTYWETGTLNSSSFNNEVEVEFNDLVTLDRIVYGSRQSDLKGFAEEVYIYASRTSKGDTYKLVATGAHEATKGLVEAKFEPTEFKRVKFKFKKSKQNSATLNELMFYKPDEVYSSIPKLFTDGTMSELSEEFNSLEKINAFKEKAKNHPLYNDFNETIELAESLISNPRKEDVLELEMRGDSISEAKKRKVWNFQDWQITGLSARAGDKITVYVDVAEGDPTPTLLYKQSLTQHGGATSFQLKPGKNEITIPEINYESNGIPKDVIQGGDLFFTNYKSDSQKRAPKVRIEGASKYPVFILGKSDENEVMKELEAYVEKIKAEPKTTPNIFAVSSNKSLEFVQATYALDWYKKNNKTPKYTAEQWDQYIADAMGFWGFDNSKDVNSDFNFRIMPMVKNLSGGAFMNAGNGVIGIRPGNQDAILAANKGWGVAHELGHNFDTGGRTIVEVTNNMMPLFFESKYKTKTRITDQNIWENNTYPKVGLDDYSNNELYNKADSTHLAQLAPLWQLYLYDNTFYGKFERQFRERDFGNKNREDIYKSWVVAASDAMELDLTEFFARHGIRVDDKVKEDLAKYPKPDKKIYYLNDLAMNYKGDGFTENAKVSVSTSGSNGNIKLSFSVDDENKDNILGYEIRRDGKYVGFTSNDSFVDTKSNLDEDGVYVVTPYDRKLNTLNPIEVNALQPTLSVNPVITLALGEEFNEEEYIVAKDIKGNSLSESVKVKSSNVNTSKVGEYEVLYSLEDSKGNEYTKTSKVNVVSRKEYMSDLTPKQSSNGWGTVRKDKSISGGVIGLTRDGDFVDYNKGLGLHSNAEYVYDLEGKDYDYFESYVGVDKAMSSRPASSVIFKVLVDGEEKFNSGVMRSTTPQKYVKVDVKNAKELKLIVNDAGDGDSSDHASFGDAKLATLSSKPIIKGENLAYSMDEKVDLMKGITATDIEDGNITSKVQIKSSDFVEGKSGIFTVVYSVTDSDGLTSECSRTIAVTDKETQLSDLNWKSATIGSGSVRKDRAVSGNQIRLLNEDNSVETFAKGIGTHSYSEIVYNSEGYDIFDTWVGIDRHVADKKVSSVKFKVYVDGELKAETDVMRIDTPKKRLVVDVRNSKEIKLVVDVADNGNNWDHADWADAKFRNLAEYDASELNKAIEEAKKLDLNNYTEESSEALKNAISKGEEALLSKDKETINSALEELNKEMNSLVKVDLNAVINIPDKYLLKSIQNQLNKTGDITLGDMYSLTTLTLSGVEDLTGLENAKNLETLNMDYNEVKDLRPLSKLKKLNTLNAQEQFIAAGELKPSNGKVIGDSKVYNREGKNVAKTIRVVDKNGNTILEQDAKDEFTINTKDLSSGLYGVHVLFEDEGFSGVMFYLFNV
Consider B1, for which the “glycan array binding signal (z-score)” value was 0.366 with Gal(b1-3)GalNAc(b1-3)Gal; -0.28 in [1]; -0.231 in test [2]; 0.078 in test [3]; 0.462 in the test with Gal(b1-3)GlcNAc; -0.422 in test [4]. Further, the “glycan array binding signal (z-score)” value was 0.114 in test [5]; -0.099 with Gal(b1-3)GlcNAc(b1-2)Man; -0.119 in test [6]; -0.193 in test [7]; -0.137 in test [8]; -0.237 in [9]. The “glycan array binding signal (z-score)” value in test [10] was 0.693; in [11], -0.316; in test [12], -0.081; in test [13], -0.399; in test [14], 0.123; in test [15], 0.131. Moreover, the “glycan array binding signal (z-score)” value is -0.416 in test [16]; -0.401 in [17]; -0.322 in [18]; 0.148 in [19]; 0.253 in [20].
